Data from the supplement of paper PMC10126150.
Sequences with one replicate were seen in a single cluster, so their values are uncertain.
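Further: ATP exposure 15 min at 22 °C before imaging.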

Each sequence was assayed on ATP (assay: switch fluorescence ratio, 500 uM ATP over buffer (Cy3 cluster intensity, sum of 5 cycles each) (fold (ratio)); higher = stronger signal-on switching upon ATP binding; sequences stand for … in TCGTCGGCAGCGTCAGATGTGTATAAGAGACAGTTTTTTTTTTTTTTTTTTTTTTTTT…TC). Conditions: aptamer strand: ATP DNA aptamer (quencher-CACCTGGGGGAGTATTGCGGAGGAAGG + anchor), 100 nM annealed; ATP concentration: 500 uM; one replicate.
Summary of the method: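 Clusters with intensities outside 100-1000 RFU were excluded. The remaining Cy3-labelled switching-strand clusters on a modified Illumina MiSeq flow-cell had been annealed to 100 nM quencher-labelled ATP aptamer and imaged in selection buffer, then after 15 min with 500 uM ATP at 22 °C, for five cycles separated by NaOH stripping and re-annealing. The fluorescence ratio, averaged per switch-domain sequence, is each cluster's summed target-cycle Cy3 intensity over its summed buffer-cycle Cy3 intensity.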
Sequence CTGTCATAGG has a switch fluorescence ratio of 1.01.
GAAGGTTGTG was tested, and the switch fluorescence ratio was 0.96.
Sequence TATATGGGAG has a switch fluorescence ratio of 0.971.
CCACGCTGCG showed a switch fluorescence ratio of 0.946.
For GTTTGAGTAC, the switch fluorescence ratio was 1.01.
For TCTTATTCCA, the switch fluorescence ratio was 1.14.
Sequence CCAAAGATG has a switch fluorescence ratio of 0.997.
For GTGGTGAGTC, the switch fluorescence ratio was 0.948.
Work on TCCTCTTGGC yielded a switch fluorescence ratio of 1.21.
TTTGCGGGTC was tested, and the switch fluorescence ratio was 0.956.
CGATGTAGCA was tested, and the switch fluorescence ratio was 0.991.
AGTCGAGCCA was tested, and the switch fluorescence ratio was 1.02.
Work on TCCGTAACGT yielded a switch fluorescence ratio of 1.09.
For TATATGCGAG, the switch fluorescence ratio was 0.995.
In the case of TGTTCCCCAT, the switch fluorescence ratio is reported as 1.02.
ATTCCGTTGT showed a switch fluorescence ratio of 1.06.
In the case of ATACGCCCAA, the switch fluorescence ratio is reported as 1.19.
In the case of GAGTTGGCGG, the switch fluorescence ratio is reported as 0.938.
With CCACAGTTGA the switch fluorescence ratio was 1.24.
Sequence TTCCCCTTAG has a switch fluorescence ratio of 1.05.
With AAGATAAATT the switch fluorescence ratio was 0.974.
With TCATGTACG the switch fluorescence ratio was 1.05.
Sequence ATCCAAGACG has a switch fluorescence ratio of 1.02.
Work on TGTCGTGCCC yielded a switch fluorescence ratio of 0.982.
With TGTCTGTATT the switch fluorescence ratio was 0.965.
In the case of GGAGGAAAAG, the switch fluorescence ratio is reported as 0.988.
TTGGCCGGCC gave a switch fluorescence ratio of 1.01.
In the case of TATTTCACTT, the switch fluorescence ratio is reported as 0.985.
ACGGTATAGG gave a switch fluorescence ratio of 1.12.
With CTTGACAGGC the switch fluorescence ratio was 1.04.
TACTACAGTT was tested, and the switch fluorescence ratio was 1.04.
CAGTGCATGA gave a switch fluorescence ratio of 0.981.
AATACCTTAG showed a switch fluorescence ratio of 1.04.
GGTGCGTCAG showed a switch fluorescence ratio of 0.976.
With TCGTATAAGT the switch fluorescence ratio was 1.01.
With TAGGAACCGT the switch fluorescence ratio was 0.996.
GCTCCAACC gave a switch fluorescence ratio of 1.22.
With GAGGGCTGCC the switch fluorescence ratio was 0.994.
In the case of GCCGTCCCTA, the switch fluorescence ratio is reported as 0.99.
With ATGACAGAGG the switch fluorescence ratio was 1.04.
With AGAAAAGTAT the switch fluorescence ratio was 0.98.
AGATAACACC showed a switch fluorescence ratio of 1.03.
In the case of CCAGCCCTGA, the switch fluorescence ratio is reported as 0.97.
GACAATAAC gave a switch fluorescence ratio of 1.31.
Sequence CTAAAGAGTA has a switch fluorescence ratio of 1.01.
TTGGAGCTTG showed a switch fluorescence ratio of 1.
TTCTTTGCTC gave a switch fluorescence ratio of 1.05.
GGAGGTTACA showed a switch fluorescence ratio of 0.951.
ATCTTACCTA showed a switch fluorescence ratio of 1.07.
Work on GGACTTATAC yielded a switch fluorescence ratio of 1.17.
Sequence GATGTCTAAG has a switch fluorescence ratio of 0.998.
CGTAACGGAT was tested, and the switch fluorescence ratio was 0.974.
With TGGATTTAAC the switch fluorescence ratio was 1.
Sequence CTTGCACCCG has a switch fluorescence ratio of 1.
AAAGTAGCGG gave a switch fluorescence ratio of 0.948.
With TGAAGGGATA the switch fluorescence ratio was 0.991.
Work on CAATGGTTGG yielded a switch fluorescence ratio of 1.04.
Work on TCCTGAGGTT yielded a switch fluorescence ratio of 1.01.
For CTCAAACAGC, the switch fluorescence ratio was 1.1.
ACTGGCAAGC showed a switch fluorescence ratio of 1.66.
Sequence AGCGACAGCT has a switch fluorescence ratio of 0.997.
AACGAGCATT showed a switch fluorescence ratio of 1.14.
Work on GGAGTAAGCT yielded a switch fluorescence ratio of 1.04.
Work on GTTGGAAGGA yielded a switch fluorescence ratio of 0.958.
GATGCGGATG showed a switch fluorescence ratio of 0.938.
GAATCCGTGA was tested, and the switch fluorescence ratio was 1.34.
GACTGGCTAT was tested, and the switch fluorescence ratio was 1.01.
Work on CCAGCGCCAG yielded a switch fluorescence ratio of 1.08.
Work on TTGCCAGCTG yielded a switch fluorescence ratio of 0.996.
For GCAAAATTTT, the switch fluorescence ratio was 0.949.
With GATAGTCTAC the switch fluorescence ratio was 0.979.
TTCATAGACT gave a switch fluorescence ratio of 0.983.
GCCATCAAAG was tested, and the switch fluorescence ratio was 0.972.
ATCGAATAAG showed a switch fluorescence ratio of 0.964.
TTTGCTGCTT showed a switch fluorescence ratio of 0.996.
Sequence GTATCACTGC has a switch fluorescence ratio of 1.05.
With TCTCACCTGC the switch fluorescence ratio was 1.06.
Sequence CTGTTTGCTA has a switch fluorescence ratio of 1.02.
TCTTAAACCA was tested, and the switch fluorescence ratio was 0.988.
Work on CCATTGTTTG yielded a switch fluorescence ratio of 0.995.
TGCTGTGAT showed a switch fluorescence ratio of 0.956.
Work on CTTATTGACG yielded a switch fluorescence ratio of 0.969.
ATCTTATCG showed a switch fluorescence ratio of 0.968.
With TTATACCGGA the switch fluorescence ratio was 0.989.
With CCATTAACAT the switch fluorescence ratio was 1.03.
Sequence AGCCTAGTAA has a switch fluorescence ratio of 1.
In the case of TTAAAAGAAG, the switch fluorescence ratio is reported as 0.948.
Work on CCGCGTGAAC yielded a switch fluorescence ratio of 4.18.
Work on CCATCTGTCA yielded a switch fluorescence ratio of 1.03.
For CTCGTCCACT, the switch fluorescence ratio was 1.04.
For AACGGGTCCG, the switch fluorescence ratio was 1.07.
TGTTCACTCG gave a switch fluorescence ratio of 0.985.
For GTCTAGAGAG, the switch fluorescence ratio was 0.983.
AATGTTTCG gave a switch fluorescence ratio of 0.963.
CCACGAGGGG was tested, and the switch fluorescence ratio was 0.999.
CAGTGGTTAC showed a switch fluorescence ratio of 1.
GACACAAAGA showed a switch fluorescence ratio of 1.69.
CGGGATGCTT gave a switch fluorescence ratio of 1.02.
Sequence CCTGGGCTTT has a switch fluorescence ratio of 1.02.
Sequence TACTCAGGT has a switch fluorescence ratio of 1.09.
TGAAGTGGGA gave a switch fluorescence ratio of 0.97.
With CTAAAATAGT the switch fluorescence ratio was 0.975.
For TTCTGTCGAG, the switch fluorescence ratio was 0.971.
Sequence CTTAGTCGCT has a switch fluorescence ratio of 1.01.
ATGTCAATCG showed a switch fluorescence ratio of 0.981.
GAAGGGCCGC showed a switch fluorescence ratio of 1.11.
CCATGCGGCT gave a switch fluorescence ratio of 1.02.
In the case of GTCTAACGTG, the switch fluorescence ratio is reported as 0.983.
With ACTATTTAGC the switch fluorescence ratio was 1.01.
With ATGACACGCA the switch fluorescence ratio was 1.16.
CTAGGGACCG was tested, and the switch fluorescence ratio was 1.07.
GGTCTCTCGC was tested, and the switch fluorescence ratio was 1.01.
CACTGTGTCG was tested, and the switch fluorescence ratio was 1.09.
With CACAAAAGGC the switch fluorescence ratio was 0.992.
For ATGCACGATA, the switch fluorescence ratio was 1.15.
For TTTCGCTA, the switch fluorescence ratio was 1.08.
TCGTTAGTAG was tested, and the switch fluorescence ratio was 0.978.
CAGTAAGAGA gave a switch fluorescence ratio of 0.998.
TATCCCAGTT gave a switch fluorescence ratio of 1.08.
TTTACGACCC was tested, and the switch fluorescence ratio was 1.49.
With ACAAGCGTGT the switch fluorescence ratio was 0.942.
In the case of CGGCCTGGTC, the switch fluorescence ratio is reported as 0.985.
For GACTCCAGAA, the switch fluorescence ratio was 1.33.
For ATGATGGTAC, the switch fluorescence ratio was 1.02.
Sequence TTTATCGCGA has a switch fluorescence ratio of 1.06.
TAACGAGGTG was tested, and the switch fluorescence ratio was 1.03.
Sequence GGGCAAGTTT has a switch fluorescence ratio of 0.957.
For GATTAATGCA, the switch fluorescence ratio was 0.973.
Work on CGACTCAGGC yielded a switch fluorescence ratio of 1.42.
CTCGCTAGCC showed a switch fluorescence ratio of 1.63.
With TCATTTAACG the switch fluorescence ratio was 0.978.
For TAGGTAATGA, the switch fluorescence ratio was 1.04.
With CGTAGGTATA the switch fluorescence ratio was 1.
In the case of TCTATGGCAA, the switch fluorescence ratio is reported as 1.61.
TTGGGTATAC gave a switch fluorescence ratio of 0.952.
For CCGAAACCGT, the switch fluorescence ratio was 1.15.
ATTTGAACTG gave a switch fluorescence ratio of 1.26.
TACTATGTCC gave a switch fluorescence ratio of 0.996.
For AACGCCGGG, the switch fluorescence ratio was 1.07.
For ACAGGAGGCT, the switch fluorescence ratio was 1.03.
With AATGGATTCG the switch fluorescence ratio was 0.966.
With TCTAAATGGT the switch fluorescence ratio was 0.987.
ACAACGCACT gave a switch fluorescence ratio of 1.81.
For CAGACTGTCG, the switch fluorescence ratio was 1.01.
For ACGATGGCCC, the switch fluorescence ratio was 1.05.
CAACTACAAA gave a switch fluorescence ratio of 0.956.
In the case of GATCTCCTTG, the switch fluorescence ratio is reported as 0.988.
For TGTAGGTT, the switch fluorescence ratio was 1.
For ATCCCCTGCC, the switch fluorescence ratio was 1.43.
With TTCGCGAGAA the switch fluorescence ratio was 1.02.
In the case of AGAGCGCCTT, the switch fluorescence ratio is reported as 1.05.
ATTTTGGAA gave a switch fluorescence ratio of 1.01.
With ACTCTTGTGA the switch fluorescence ratio was 1.02.
